Experimental data taken from patent publication US7671062B2, “Modulators of chemokine receptor activity, crystalline forms and process” (Bristol-Myers Squibb Company, priority 2006, dated 2010).
Where two headings read alike, the source gives them in different places.

System: Sodium Channel, Site 2

## CC(=O)N[C@@H]1C[C@H](N(C)C(C)C)CC[C@@H]1N1CC[C@H](Nc2ncnc3ccc(C(F)(F)F)cc23)C1=O [Example 1, N-((1R,2S,5R)-5-(isopropyl(methyl)amino)-2-((S)-2-oxo-3-(6-(trifluoromethyl)quinazolin-4-ylamino)pyrrolidin-1-yl)cyclohexyl)acetamide]
At 10,000 nM
  Na+ channel binding (% inhibition): 0%, 10,000 nM;
At 30,000 nM
  Na+ channel binding (% inhibition): 21%, 30,000 nM
